# The whole screen tested about 39,000 compounds, of which about 220 (0.56%) showed activity. This is one part of the list.
# System: Escherichia coli K-12 BW25113
# Assay: relative growth (OD600 normalised to plate interquartile mean) (fraction); higher = less growth inhibition, active = 0.2 or less
# Settings: 50 µM; LB; incubation time: overnight (16-24 h)
# 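Note: static incubation at 37 °C against the wild-type strain, values averaged over two biological replicates.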
row,Compound,relative growth
1,Cc1noc(C)c1NC(=O)Nc1ccc2c(c1)CC(=O)N([C@H](C)CO)C[C@H](C)[C@H](CN(C)C(=O)NC(C)C)O2,inactive: 0.993
2,C[C@H](CO)N1C[C@H](C)[C@@H](CN(C)C(=O)Nc2ccc(C(F)(F)F)cc2)Oc2ccc(NC(=O)C3CCCCC3)cc2CC1=O,inactive: 1
3,CCCNC(=O)N(C)C[C@H]1Oc2cc(-c3ccccc3F)ccc2S(=O)(=O)N([C@@H](C)CO)C[C@H]1C,inactive: 1.02
4,Cc1ccc(S(=O)(=O)Nc2ccc3c(c2)C(=O)N([C@@H](C)CO)C[C@@H](C)[C@@H](CN(C)C(=O)CCC(F)(F)F)OCCCC[C@H](C)O3)cc1,inactive: 0.97
5,O=C(N/N=C/[C@H](O)[C@@H](O)[C@H](O)[C@H](O)CO)c1ccccn1,inactive: 1
6,Cc1ccc(S(=O)(=O)Nc2ccc3c(c2)C(=O)N([C@H](C)CO)C[C@H](C)[C@@H](CN(C)C(=O)Nc2ccccc2)OCCCC[C@H](C)O3)cc1,inactive: 1.01
7,CNC1C(OC2C(OC3C(O)C(O)C(NC(=N)N)C(O)C3NC(=N)N)OC(C)C2(O)C=O)OC(CO)C(O)C1O.O=S(=O)(O)O (stereo not drawn) [STREPTOMYCIN SULFATE [5mM; 10% aq DMSO + 5mM ethanolamine]],inactive: 1.11
8,O=C(O)Cc1cc(I)c(Oc2ccc(O)c(I)c2)c(I)c1,inactive: 1.09
9,C[C@@H]1CN([C@H](C)CO)C(=O)CCCn2cc(nn2)CO[C@H]1CN(C)C(=O)c1ccc(N2CCN(C)CC2)cc1,inactive: 0.991
10,CC1CC2C3CCC4=CC(=O)C=CC4(C)C3(Cl)C(O)CC2(C)C1(OC(=O)c1ccco1)C(=O)CCl (stereo not drawn),inactive: 0.877
11,CC(C)(C)C(=O)CC1(O)CCCCC1,inactive: 1.02
12,Cc1ccc(S[C@]2(C(=O)NCCCN(C)C)CC(=O)N(Cc3ccccc3Cl)[C@@H]2c2ccc(CO)cc2I)cc1,inactive: 0.938
13,CC1C(=O)CCC2C1(C)CCC1C2(C)CCC2(C)C3CC(C)(C)CCC3(C)CCC12C (stereo not drawn),inactive: 0.978
14,CCOC(=O)CN1C(=O)c2ccccc2C1=O,inactive: 1.02
15,Cc1noc(C)c1NC(=O)N(C)C[C@@H]1Oc2ccc(NC(=O)c3ccncc3)cc2C(=O)N([C@@H](C)CO)C[C@@H]1C,inactive: 0.983
16,COc1ccc(cc1)S(=O)(=O)N1C[C@]2(CN(Cc3ccncc3)[C@H](CO)c3[nH]c4cc(ccc4c32)OC)C1,inactive: 1.01
17,C[C@@H]1CCCCO[C@@H](CN(C)C(=O)Cc2ccccc2)[C@@H](C)CN([C@H](C)CO)C(=O)c2cc(NC(=O)NC3CCCCC3)ccc2O1,inactive: 1.01
18,C[C@H](CO)N1C[C@H](C)[C@@H](CN(C)S(=O)(=O)c2cn(C)cn2)Oc2c(NS(C)(=O)=O)cccc2C1=O,inactive: 1.02
19,C[C@@H]1CN([C@H](C)CO)C(=O)c2cc(NC(=O)c3ccncc3)ccc2O[C@@H]1CN(C)Cc1ccc2c(c1)OCO2,inactive: 0.987
20,C[C@H](CO)N1C[C@H](C)[C@@H](CN(C)C(=O)Nc2ccccc2)OCCCC[C@H](C)Oc2ccc(NC(=O)Nc3ccc4c(c3)OCO4)cc2C1=O,inactive: 1.02

row,Compound,relative growth
1,C[C@H]1CN([C@@H](C)CO)C(=O)c2cc(-c3cccc(C(=O)N(C)C)c3)cnc2O[C@H]1CN(C)C(=O)Cc1ccccn1,inactive: 1.02
2,COc1ccc(NC(=O)Nc2ccc3c(c2)C(=O)N([C@H](C)CO)C[C@@H](C)[C@@H](CN(C)CC2CCCCC2)OCCCC[C@@H](C)O3)cc1,inactive: 0.984
3,COc1ccc(S(=O)(=O)Nc2ccc3c(c2)C(=O)N([C@@H](C)CO)C[C@H](C)[C@@H](CN(C)S(=O)(=O)c2ccc(Cl)cc2)OCCCC[C@H](C)O3)cc1,inactive: 1.06
4,C[C@@H]1CN([C@@H](C)CO)C(=O)c2cc(NC(=O)Cc3ccccc3)ccc2O[C@@H](C)CCCCO[C@@H]1CN(C)C(=O)Nc1ccc2c(c1)OCO2,inactive: 0.972
5,C=CCN([C@@H](Cc1ccccc1)[C@@H](O)c1cn(CCCCCCNC(=O)C(=O)NC)nn1)S(=O)(=O)c1ccccc1[N+](=O)[O-],inactive: 0.95
6,O=C(C[C@@H]1C[C@H]2c3cc(NS(=O)(=O)c4ccc(F)cc4)ccc3O[C@H]2[C@H](CO)O1)NC1CCCCC1,inactive: 1
7,COc1cc(C(C)=O)cc(OC)c1O,inactive: 0.953
8,C[C@H](CO)N1C[C@H](C)[C@@H](CN(C)Cc2ccc(Cl)c(Cl)c2)Oc2c(NS(=O)(=O)c3ccccc3)cccc2C1=O,inactive: 1.07
9,C[C@H]1CCCCO[C@H](CN(C)S(=O)(=O)c2ccc(F)cc2)[C@@H](C)CN([C@@H](C)CO)C(=O)c2cc(NS(=O)(=O)c3cn(C)cn3)ccc2O1,inactive: 0.99
10,CCCNC(=O)N(C)C[C@H]1Oc2cc(-c3ccc(C)cc3)ccc2S(=O)(=O)N([C@H](C)CO)C[C@H]1C,inactive: 1.02
11,COc1ccc(NC(=O)Nc2ccc3c(c2)C(=O)N([C@H](C)CO)C[C@H](C)[C@H](CN(C)CC2CC2)OCCCC[C@@H](C)O3)cc1,inactive: 1.01
12,C[C@]1(C(=O)O)c2ccccc2C(=O)N(Cc2cc(C(F)(F)F)cc(C(F)(F)F)c2)[C@H]1c1ccc(CO)cc1,inactive: 0.98
13,C[C@@H]1CN([C@@H](C)CO)C(=O)c2cc(NC(=O)Nc3cccc4ccccc34)ccc2O[C@@H](C)CCCCO[C@H]1CN(C)C(=O)C1CCCCC1,inactive: 1.01
14,C[C@H]1CCCCO[C@@H](CN(C)C(=O)Nc2ccccc2)[C@@H](C)CN([C@@H](C)CO)C(=O)c2cc(NC(=O)c3ccccc3)ccc2O1,inactive: 1.04
15,COCC#Cc1ccc2c(c1)O[C@H](CN(C)C(=O)C1CCCCC1)[C@H](C)CN([C@H](C)CO)S2(=O)=O,inactive: 0.988
16,CC(C)(C)[S@@](=O)N1Cc2cc(C(=O)NCc3ccncc3)nc(-c3cccc(-c4ccc(C#N)cc4)c3)c2[C@H]1CCO,inactive: 1.04
17,Cc1ccc(-c2ccc3c(c2)O[C@H](CN(C)Cc2cncnc2)[C@H](C)CN([C@@H](C)CO)S3(=O)=O)cc1,inactive: 1.02
18,C[C@H]1CN([C@@H](C)CO)C(=O)Cc2cc(NC(=O)CCCN(C)C)ccc2O[C@@H]1CN(C)S(=O)(=O)c1ccccc1,inactive: 0.981
19,Cc1cc(C(=O)Nc2cccc3c2O[C@H](CN(C)C(=O)Nc2c(C)noc2C)[C@@H](C)CN([C@H](C)CO)C3=O)n(C)n1,inactive: 1.02
20,C[C@H]1CN([C@@H](C)CO)C(=O)c2cc(-c3cncnc3)cnc2O[C@H]1CN(C)C(=O)CN1CCOCC1,inactive: 0.976

row,Compound,relative growth
1,COc1ccc(C#Cc2ccc([C@@H]3[C@H]4CN(S(=O)(=O)c5cn(C)cn5)CCCCN4[C@H]3CO)cc2)cc1,inactive: 1
2,CNC(=O)[C@H]1C[C@@H]2CCN(C(=O)N(C)C)C[C@H]2O1,inactive: 1.02
3,COc1cccc(S(=O)(=O)N(C)C[C@@H]2Oc3ncc(C#Cc4cccc(F)c4)cc3C(=O)N([C@H](C)CO)C[C@@H]2C)c1,inactive: 1.02
4,C[C@H]1CN([C@@H](C)CO)C(=O)c2cc(C#Cc3ccc(F)cc3)cnc2O[C@@H]1CN(C)CC1CCOCC1,inactive: 0.981
5,C[C@@H]1CN([C@H](C)CO)C(=O)c2cc(NC(=O)Nc3ccc(F)cc3)ccc2O[C@@H](C)CCCCO[C@@H]1CN(C)Cc1ccc2c(c1)OCO2,inactive: 1.04
6,C[C@@H]1CCCCO[C@H](CN(C)C(=O)Nc2ccc3c(c2)OCO3)[C@@H](C)CN([C@@H](C)CO)C(=O)c2cc(NC(=O)CCC(F)(F)F)ccc2O1,inactive: 0.989
7,C[C@H](CO)N1C[C@H](C)[C@H](CN(C)CC2CCOCC2)Oc2cc(Br)ccc2S1(=O)=O,inactive: 1
8,COCC#Cc1ccc2c(c1)O[C@H](CN(C)C(=O)C1CCOCC1)[C@H](C)CN([C@H](C)CO)S2(=O)=O,inactive: 1
9,C[C@@H]1CN([C@H](C)CO)C(=O)c2cc(NC(=O)Cc3ccccc3)ccc2O[C@@H](C)CCCCO[C@H]1CN(C)C(=O)Nc1ccc2c(c1)OCO2,inactive: 1.02
10,C[C@H]1CN([C@@H](C)CO)C(=O)Cc2cc(NC(=O)Nc3ccc(C(F)(F)F)cc3)ccc2O[C@@H]1CN(C)C(=O)Nc1ccc(C(F)(F)F)cc1,inactive: 1.02
11,C[C@@H]1CN([C@@H](C)CO)C(=O)c2cccc(NC(=O)NC3CCCCC3)c2O[C@@H]1CN(C)Cc1ccc(Cl)c(Cl)c1,inactive: 1
12,Cc1ccc(S(=O)(=O)Nc2ccc3c(c2)C(=O)N([C@H](C)CO)C[C@H](C)[C@@H](CN(C)C(=O)Nc2ccc4c(c2)OCO4)OCCCC[C@H](C)O3)cc1,inactive: 1.04
13,CC(Cc1ccc(O)c(O)c1)C(C)Cc1ccc(O)c(O)c1 (stereo not drawn),inactive: 0.979
14,C[C@@H]1CN([C@H](C)CO)C(=O)c2cc(NC(=O)Nc3ccc4c(c3)OCO4)ccc2O[C@@H](C)CCCCO[C@H]1CN(C)Cc1ccncc1,inactive: 1
15,C[C@@H]1CCCCO[C@@H](CN(C)C(=O)C2CCCCC2)[C@@H](C)CN([C@H](C)CO)C(=O)c2cc(NC(=O)C3CCCCC3)ccc2O1,inactive: 1.03
16,O=C(O)CCN1C(=O)[C@@H]2[C@@H](C1=O)[C@@H]1C=C[C@@H]2C1,inactive: 1.02
17,COc1ccc(S(=O)(=O)N[C@H]2CC[C@@H](CC(=O)N3CCN(c4ccccc4)CC3)O[C@H]2CO)cc1,inactive: 1.02
18,C[C@@H]1CN([C@H](C)CO)C(=O)c2cc(NC(=O)Nc3ccccc3)ccc2O[C@@H](C)CCCCO[C@H]1CN(C)Cc1ccc(C(F)(F)F)cc1,inactive: 0.969
